We go through 61 molecules from PubChem BioAssay AID485344 (National Center for Advancing Translational Sciences (NCATS), 2010).

Values joined by “and” are separate entries in the source; they are usually repeats but may differ in a detail not shown here. Equal entries are not always repeated. The whole screen tested about 340,000 compounds, of which about 6,900 (2%) were called active. Rule as the data show it: active = inhibition above about 30%; inactive = below that, where a call was filed. The list shows a part of the results, in another mix than the full data. Where no call is shown, the source filed none.

Sequence of UniProt P14416 (P14416 whole entry, looked up): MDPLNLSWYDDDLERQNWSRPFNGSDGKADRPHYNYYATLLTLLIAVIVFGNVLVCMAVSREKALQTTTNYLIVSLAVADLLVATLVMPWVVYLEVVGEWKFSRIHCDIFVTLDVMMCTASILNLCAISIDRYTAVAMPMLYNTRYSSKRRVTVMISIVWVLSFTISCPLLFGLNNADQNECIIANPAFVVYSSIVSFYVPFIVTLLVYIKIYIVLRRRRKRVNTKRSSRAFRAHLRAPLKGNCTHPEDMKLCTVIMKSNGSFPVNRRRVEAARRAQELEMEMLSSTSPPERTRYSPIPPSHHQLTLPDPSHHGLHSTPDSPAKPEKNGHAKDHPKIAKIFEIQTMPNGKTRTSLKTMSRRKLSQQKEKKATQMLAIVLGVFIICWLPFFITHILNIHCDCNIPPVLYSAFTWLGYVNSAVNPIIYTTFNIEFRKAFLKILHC

This assay addresses D(2) dopamine receptor (Homo sapiens) (UniProt P14416). Nature of the assay: HTS Assay for Allosteric Antagonists of the Human D2 Dopamine Receptor: Primary Screen for Antagonists. Also: 0% is about no effect. The conditions noted are these: HEK293 TREx D2 cells, calcium flux, dopamine EC80; at 10 µM; stronger effect = higher value. In a few lines:
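In this primary screen, negative modulation is detected by tracking calcium flux after an EC80 dopamine challenge in inducible HEK293 T-REx D2 cells preexposed to test compound for 180 s.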
A general note: Calcium flux is commonly read through the fluorescence of an indicator in the cells.
As for `O=C(CN1CCC(O)(c2ccccc2F)CC1)NCCc1c[nH]c2ccccc12`, the inhibition (usually the relative decrease from the control value, in per cent) is active: 86%. The value for `O=C(CCn1c(=O)c2cccn2c2cccnc21)NCc1ccccc1Cl` was 7.81%; that for `O=C(CSc1nc2ncccc2[nH]1)Nc1cc(F)ccc1F` was -0.863%. The value for `C=CCc1cccc(/C=N/NC(=O)C(C)Nc2cccc(C)c2)c1O` (stereo unspecified) was active: 31%; that for `COc1cccc(N2CCN(C(=O)C3CCCN(S(=O)(=O)c4cccc5nsnc45)C3)CC2)c1` (stereo unspecified) was -2.76%.

As to `O=C(NCC(c1cccnc1)N1CCN(c2ccccc2F)CC1)C(=O)Nc1ccc(F)cc1F` (stereo unspecified), the inhibition is -15.6%. The value for `CCOc1ccc(C(=O)c2cn(CC(=O)Nc3ccc4c(c3)OCO4)c3ccc(OC)cc3c2=O)cc1` was -8.29%.

On to `CCOc1cc(CNC(=O)c2ccccc2NC(=O)c2nsc3ccccc23)ccc1OC`, for which the inhibition was 1.77%. The value for `Cc1ccc(C(=O)N(Cc2ccco2)Cc2ccco2)cc1` was -14.2%; that for `CCOc1cccc(CC(=O)NCc2ccc3c(c2)CCN3C(=O)c2ccc(F)cc2)c1OCC` was -23.8%.

Regarding `CCOc1ccc(NC(=O)Cn2cc(C(=O)c3cccs3)c3ccccc32)cc1`, the inhibition amounted to 1.9%.

As to `CC1(C)S[C@@H]2[C@H](NC(=O)C(C(=O)O)c3ccccc3)C(=O)N2[C@H]1C(=O)O` (stereo partly specified), the inhibition is active: 32.8%. Turning to `O=C(Cn1c(-c2cccs2)cc2ccccc21)N1CCN(c2ccccc2F)CC1`, the inhibition came out at 5.03%. With `COc1ccc(NC(=O)CSC2=Nc3ccccc3C3=NC(CC(=O)NCc4ccco4)C(=O)N23)cc1` (stereo unspecified) the figure was -17.9%. Regarding `O=C(CSc1nnc(-c2ccncc2)n1-c1ccccc1)Nc1ccc(Cl)c(Cl)c1`, the inhibition is -14.8%.

With `Clc1ccc(CCNc2nc3ccccc3c3nc(-c4ccccc4)nn23)cc1`, the inhibition is -6.05%.

`COc1ccc2c(CC(=O)Nc3ccc(C)cc3)coc2c1`: the inhibition came out at 2.35%. With `CCC(CC)C(=O)Nc1ccc2nc(SCc3ccccc3)sc2c1` the figure was 15.1%; with `CS(=O)(=O)c1ncc(Cl)c(C(=O)Nc2c(C(=O)Nc3ccccc3)oc3ccccc23)n1`, -1.04%. The value for `Cc1cccc(Nc2ncc(NC(=O)c3cccc(F)c3)c(Nc3cccc(C)c3)n2)c1` was 16.2%; that for `COc1ccc(CN(C)c2ccc(-c3nc(-c4ccccc4)no3)cc2[N+](=O)[O-])cc1` was 5.55%. The value for `COc1cccc(CCNC(=O)c2cnc3sc(N4CCCCCC4)nn3c2=O)c1` was 1.47%; that for `O=C(Nc1ccc2oc(-c3cccnc3)nc2c1)c1ccc(-c2cccc(Cl)c2)o1` was 20.5%; that for `COc1cc(NC(=O)CC2C(=O)N(c3cccc(C)c3)C(=O)N2Cc2ccco2)cc(OC)c1` (stereo unspecified) was -2.04%. As for `COc1ccc(S(=O)(=O)c2c(Nc3c(C)cccc3C)sc(C(=O)c3ccc4c(c3)OCO4)c2N)cc1`, the inhibition was found to be 16.6%. The value for `Cc1ccc(-n2nc3c(=O)n(CC(=O)NC(C)C)nc(C)c3c2C)cc1` was 8.62%; that for `CCOc1ccc(CNC(=O)c2ccc3c(c2)N(CC)CCS3)cc1` was 0.966% and active: 60.9%. With `CCCCOc1ccc(C(=O)NCCc2sc(-c3ccc(OC)c(OC)c3)nc2C)cc1` the figure was -3.18%.

`O=C(Nc1cccc(O)c1)c1cc2nc(-c3ccc(Br)cc3)cc(C(F)(F)F)n2n1`: the inhibition was -17.2%. With `COc1ccc(N2CCN(C(=O)CSc3c4c(nc5ccc(Cl)cc35)CCCC4)CC2)cc1` the figure was -19.1%. The value for `Cc1cccc(N2CCN(S(=O)(=O)c3ccc4c(c3)C(C(C)C)C(=O)N4)CC2)c1C` (stereo unspecified) was -10.2%. Regarding `Cc1ccc(-c2nnc(SCC(=O)c3ccc(Cl)cc3)n2-c2ccccc2)cc1`, the inhibition turned out to be 9.15%. The value for `COc1cccc(N(Cc2nnc3n2CCCCC3)C(=O)Nc2ccccc2)c1` was -5.83%. With `Cc1nc2nc(NC(=O)c3ccc(C(C)(C)C)cc3)[nH]n2c(=O)c1Cl` the figure was 7.96%. Consider `Cc1oc(-c2ccccc2F)nc1CSCC(=O)N1CCN(c2ccccc2)CC1`, for which the inhibition came out at 22.1%.

Take `CCOc1ccc(CCNC(=O)Cn2c(-c3cccs3)cc3cc(F)ccc32)cc1OCC`: the inhibition is -13.7%. With `CCCc1cc(N2CCN(c3ccccc3)CC2)n2cnnc2n1` the figure was -16.2%; with `CCc1ccccc1NCc1nnc2n1CCCCC2`, 20.2%. The value for `Cn1c(=NC(=O)c2ccc(S(=O)(=O)N3CCCC3)cc2)sc2cc(F)ccc21` was -25.6%; that for `O=C1COc2cc(S(=O)(=O)CCC(=O)N3CCN(c4ccccc4F)CC3)c(Cl)cc2N1` was -3.82%. As for `Cc1ccccc1CNc1nc(N(C)C)nc2c1cnn2C`, the inhibition is -4.37%. For the molecule `Cc1ccc(NC(=O)C2CCN(S(=O)(=O)c3ccc4[nH]c(=O)ccc4c3)CC2)cc1C`, the inhibition was found to be 16.3%. The value for `Cc1cccn2c(Nc3ccccc3)c(-c3cccs3)nc12` was -0.455%; that for `COc1ccccc1NC(=O)CSc1nc2nccnc2c(=O)n1CCc1c[nH]c2ccccc12` was 6.19%; that for `CSc1ccc(S(=O)(=O)NCC(=O)OCC(=O)NCCc2ccccc2)cc1[N+](=O)[O-]` was active: 33.2%.

`CCN(CC)CCNC(=O)CSc1nc2nc(C)c(Cc3ccccc3)c(C)n2n1`: the inhibition was -2.08%. The value for `CCOc1ccccc1NC(=O)CCn1cnnn1` was 10.2%. The value for `Cc1[nH]c2ccccc2c1C(c1ccccc1)c1ccc(Cl)s1` (stereo unspecified) was -8.59%.

On to `COc1cccc(CNC(=O)Cc2ccc(NC(=O)N3CCSc4ncccc43)cc2)c1OC`, for which the inhibition was -0.085%.

As for `COc1cccc(NS(=O)(=O)c2ccc3c(c2)[C@H]2C=CC[C@H]2[C@@H](c2ccccc2Cl)N3)c1`, the inhibition turned out to be 13.8%. As to `Clc1ccc(OCCCN2CCc3ccccc3C2)c(Br)c1`, the inhibition was active: 63.9%. The value for `Cc1cccc(N2CCN(C(=O)C3CCCN(S(=O)(=O)c4ccc(Br)s4)C3)CC2)c1C` (stereo unspecified) was -4.56%; that for `CCOC(=O)C1CCC(CN(Cc2ccc(Cl)cc2)S(=O)(=O)c2cc(Cl)cc(Cl)c2)CC1` (stereo unspecified) was 1.45%; that for `Cc1ccc2scc(N3CCC(C)CC3)c(=O)c2c1` was 12.9%.

In the case of `Cc1cccc(N2CCN(C(=O)CN3C(=O)COc4ccc(S(=O)(=O)N5CCC(C)CC5)cc43)CC2C)c1` (stereo unspecified), the inhibition was -1.37%. With `CC(C)c1nc2ccc(C(=O)NCCCN3CCN(c4cccc(Cl)c4)CC3)cc2o1` the figure was 1.93%. The value for `CCOC(=O)N1CCN(Cc2nc3cc([N+](=O)[O-])ccc3n2C(C)C)CC1` was 9.57%; that for `CCOc1ccc(CCNC(=O)c2nc(-c3cccc(F)c3)n3c2CCCCC3)cc1OCC` was 7.03%. The value for `CCOc1ccc(CNC(=O)c2cnc3sc(N4CCOCC4)nn3c2=O)cc1OC` was 10.7%.

For `COc1ccc(-c2nc3cc(C)ccn3c2NC(=O)c2ccc(F)cc2)cc1`, the inhibition was 10.5%. With `NS(=O)(=O)c1ccc(CCNC(=O)c2ccc3nc(CCc4ccccc4)oc3c2)cc1` the figure was 18.6%.
